Data published in PubChem BioAssay AID720709 (National Center for Advancing Translational Sciences (NCATS), 2013).
About 520 (0.14%) of roughly 360,000 compounds were called active. The shares of active, inactive and inconclusive entries below differ from those in the screen. Calls come from the whole dose curve; as a rule, active = well fitted inhibition curve with a large enough effect; inconclusive = small, poorly fitted or top-dose-only effect; inactive = no such curve, though single readings can be large or run the other way. No potency is given beside an inconclusive call; the fits are too rough.

target: Rap guanine nucleotide exchange factor 3 (Homo sapiens) (UniProt O95398); experiment: qHTS for Antagonist of cAMP-regulated guanine nucleotide exchange factor 3 (EPAC1): primary screen; conditions: EPAC1 GEF assay, Rap1b-BODIPY-GDP exchange fluorescence; activity change, negative = inhibition: at 115 µM (top of the series); note: nearly all actives have a fitted effect of over 50% in size;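 for activity change, negative = inhibition: plate controls were vehicle for no effect and positive control for full effect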
UniProt O95398, sequence (O95398 whole entry, looked up): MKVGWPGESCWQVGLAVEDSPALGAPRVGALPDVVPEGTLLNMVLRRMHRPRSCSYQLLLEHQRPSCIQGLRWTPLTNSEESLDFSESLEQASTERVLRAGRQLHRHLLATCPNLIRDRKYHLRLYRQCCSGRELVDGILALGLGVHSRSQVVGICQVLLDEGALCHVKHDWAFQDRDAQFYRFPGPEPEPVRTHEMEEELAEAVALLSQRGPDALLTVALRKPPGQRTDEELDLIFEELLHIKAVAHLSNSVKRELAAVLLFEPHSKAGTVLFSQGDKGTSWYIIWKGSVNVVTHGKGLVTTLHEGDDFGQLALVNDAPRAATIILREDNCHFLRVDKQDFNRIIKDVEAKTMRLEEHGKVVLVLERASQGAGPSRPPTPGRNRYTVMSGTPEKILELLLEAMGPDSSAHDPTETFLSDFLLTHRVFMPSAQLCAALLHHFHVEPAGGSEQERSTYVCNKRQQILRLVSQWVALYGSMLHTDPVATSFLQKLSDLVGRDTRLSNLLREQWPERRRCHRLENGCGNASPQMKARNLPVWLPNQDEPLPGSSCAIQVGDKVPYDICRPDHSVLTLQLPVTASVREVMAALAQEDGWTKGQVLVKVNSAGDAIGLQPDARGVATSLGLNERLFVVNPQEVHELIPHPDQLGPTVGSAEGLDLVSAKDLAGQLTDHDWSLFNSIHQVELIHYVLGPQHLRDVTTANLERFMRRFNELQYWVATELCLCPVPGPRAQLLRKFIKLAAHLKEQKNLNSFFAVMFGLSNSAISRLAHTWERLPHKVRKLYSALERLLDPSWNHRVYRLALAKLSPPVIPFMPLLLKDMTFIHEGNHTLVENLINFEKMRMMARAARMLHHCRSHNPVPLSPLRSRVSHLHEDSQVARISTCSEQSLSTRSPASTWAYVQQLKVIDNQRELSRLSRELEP
Potency is the fitted concentration of half-maximal effect; tags give direction and shape of the fitted curve.

| SMILES | activity change, negative = inhibition | Potency |
| --- | --- | --- |
| Cc1cc(C)c2c(=O)n(CC(=O)Nc3ccc(Cl)cc3)sc2n1 | inactive: -1.03% |  |
| COc1ccc(N2C(=NC(=O)c3ccccc3)SC3CS(=O)(=O)CC32)cc1 (centres undefined) |  | inconclusive [inhibitor, single point] |
| COc1ccc(N2CC(NS(=O)(=O)c3cccs3)CC2=O)cc1 (centres undefined) |  | inconclusive [inhibitor, full curve, poor fit] |
| O=C1NC(=O)/C(=C/c2ccccn2)S1 |  | inconclusive [inhibitor, single point] |
| O=C1c2ccccc2C(=O)c2c(NCCCN(CCO)CCO)cccc21 |  | inconclusive [inhibitor, full curve, poor fit] |
| Cc1cccc(CC(C)NC(=O)c2cc(COc3ccc(C)c(C)c3)on2)n1 (centres undefined) |  | inconclusive [inhibitor, partial curve, poor fit] |
| COc1ccc2cc(C(C)C(=O)OC(C)C)ccc2c1 (centres undefined) | inactive: -14.5% |  |
| COc1ccc(-c2cc(-n3c(C(F)(F)F)nc4ccccc43)n(CCC#N)n2)cc1 |  | inconclusive [inhibitor, single point] |
| Cc1cc(/C=C(\C#N)C(=O)OCC(=O)NC(=O)NC(C)(C)C)c(C)n1CCC(C)C |  | inconclusive [inhibitor, full curve] |
| O=C(NCc1ccccc1)C1=C[C@@H](c2ccc3c(c2)OCO3)C[C@@H](OCc2ccc(CO)cc2)O1 |  | inconclusive [inhibitor, single point] |
| COc1ccc(CN2CCNC(=O)C2CC(=O)NCc2cccc(C)n2)c(OC)c1 (centres undefined) |  | inconclusive [inhibitor, single point] |
| COc1ccc(-c2csc3[nH]c(=S)n(-c4ccccc4)c(=O)c23)cc1OC |  | inconclusive [inhibitor, single point] |
| Cc1c(C(C)C)c(=O)n(-c2ccc(S(=O)(=O)NC3CC3)cc2)n1C |  | inconclusive [inhibitor, full curve] |
| Cc1ncc(CO)c(/C=N/NC(=S)Nc2ccc(F)cc2)c1O |  | inconclusive [inhibitor, single point] |
| C/C(=C\C(=S)Nc1ccccc1)Nc1cccc2ccccc12 | inactive: 6.95% |  |
| Cc1[nH]n(-c2ccccc2)c(=O)c1C(c1cccc([N+](=O)[O-])c1)c1c(C)[nH]n(-c2ccccc2)c1=O |  | inconclusive [inhibitor, single point] |
| Cc1ccn2cc(CNC(=O)c3cccs3)nc2c1 |  | inconclusive [inhibitor, single point] |
| COc1ccc(OC)c(-n2c(SCC(N)=O)nnc2-c2c[nH]c3ccccc23)c1 |  | inconclusive [inhibitor, single point] |
| COc1ccc(NC(=O)CSc2nc(O)cc(=O)n2-c2ccccc2OC)cc1 |  | inconclusive [inhibitor, partial curve] |
| CCC(=O)Nc1ccc(C(=O)COC(=O)c2nc3nccc(C)n3n2)cc1 |  | inconclusive [inhibitor, partial curve] |
| CCOC(=O)c1ccc(NC(=O)CSc2nc3cccnc3n2C)cc1 |  | inconclusive [inhibitor, single point] |
| O=C(O)C/C(=C\c1cc(Br)cs1)c1nc2ccccc2o1 | inactive: -7.92% |  |

| SMILES | activity change, negative = inhibition | Potency |
| --- | --- | --- |
| COC(=O)CCC(=O)OC1(C)C(=O)C2=CN(CC3CC3)C(c3ccc(OC)cc3)=CC2=C(Br)C1=O (centres undefined) | inactive: 13.9% |  |
| CCOc1ccc(N2CSC3=C(C#N)C(c4ccco4)CC(=O)N3C2)cc1 (centres undefined) | inactive: 3.84% |  |
| COC(=O)C(CSCc1ccccc1)NC(=O)CSc1nc(C)cc(=O)[nH]1 (centres undefined) |  | inconclusive [inhibitor, partial curve] |
| CCc1sc(C(=O)Nc2ccc3nc(C)sc3c2)cc1C |  | inconclusive [inhibitor, full curve, poor fit] |
| Cc1ccc(NC(=O)COC(=O)C2C3CC4OC(=O)C2C4C3)cc1Cl (centres undefined) |  | inconclusive [inhibitor, full curve] |
| C=CC(=O)N=c1sc2ccccc2n1-c1ccccc1 |  | inconclusive [inhibitor, full curve, poor fit] |
| Cc1[nH]n(-c2ccccc2)c(=O)c1/C=N/NC(=O)c1cccc(F)c1 | inactive: 2.86% |  |
| Cc1ccc(O)c(CNc2ccc(S(=O)(=O)Nc3nccs3)cc2)c1 | inactive: -14.6% |  |
| CC(=O)Oc1cc(O)c2c(c1)OC(c1ccc(OC(C)=O)c(OC(C)=O)c1)C(OC(C)=O)C2=O (centres undefined) |  | inconclusive [inhibitor, single point] |
| CC(NC(=O)CN1C(=O)NC2(CCCCC2C)C1=O)c1ccccc1 (centres undefined) |  | inconclusive [inhibitor, full curve, poor fit] |
| O=C(Nc1cccc(Br)c1)c1cccc(OC(=S)N2CCOCC2)c1 |  | inconclusive [inhibitor, partial curve] |
| CC(C)n1cnc2c(NCc3ccccc3)cc(N[C@H](C)CO)cc21 |  | inconclusive [inhibitor, single point] |
| Cc1cc(C)c2c(N)c(C(=O)Nc3c(C)n(C)n(-c4ccccc4)c3=O)sc2n1 | inactive: 8.48% |  |
| CCOC(=O)c1ccc(S(=O)(=O)NNC(=O)Cc2csc(C)n2)cc1 | inactive: 14.1% |  |
| Cc1ccc2[nH]c3nc(NN)nnc3c2c1 |  | inconclusive [inhibitor, partial curve] |
| O=C1CCCC2=C1C(c1ccc(O)c(O)c1)Nc1ccc3ccccc3c12 (centres undefined) |  | inconclusive [inhibitor, single point] |
| CC(=O)C1C(c2ccccc2OC(F)F)NC(=O)NC1(O)C(F)(F)F (centres undefined) | inconclusive: 5.82% [inhibitor] |  |
| CCOC(=O)C1=NNC(C(=O)c2ccc(C)cc2)C1c1ccc(C)cc1 (centres undefined) |  | inconclusive [inhibitor, full curve, poor fit] |
| C=CCCCCCCCCc1nc(SCC(=O)O)n[nH]1 |  | inconclusive [inhibitor, single point] |
| COc1ccc(Cn2c(=O)[nH]c3cc(C(=O)NC4CCCC4)ccc3c2=O)cc1 |  | inconclusive [inhibitor, full curve, poor fit] |
| O=C1CS(=O)(=O)N(Cc2ccc(F)cc2)c2ccccc21 | inactive: 3.22% |  |
| CC(C)(C)OC(=O)[C@H](Cc1ccccc1)NC(=O)c1[nH]cnc1C(=O)Nc1ccccc1F |  | inconclusive [inhibitor, full curve] |

| SMILES | activity change, negative = inhibition | Potency |
| --- | --- | --- |
| CCCCCCCCCCS(=O)(=O)N/N=C/c1ccccc1OC |  | inconclusive [inhibitor, partial curve] |
| CCc1ccc(CNC(=O)C2CCCN(S(=O)(=O)N(CC)c3ccccc3)C2)cc1 (centres undefined) |  | inconclusive [inhibitor, partial curve, poor fit] |
| Cc1cc(C)c(C(=O)CC(=O)c2ccccc2Cl)c(O)c1 |  | inconclusive [inhibitor, full curve, poor fit] |
| CCOc1ccc(S(=O)(=O)N2CCCCC2)cc1NC(=O)CN1C(=O)NC(C)(c2ccccc2)C1=O (centres undefined) |  | inconclusive [inhibitor, single point] |
| COC(=O)c1sc(-c2ccc(C(C)(C)C)cc2)cc1NC(=O)CSCC(=O)O |  | inconclusive [inhibitor, partial curve] |
| COc1ccc(Nc2cc(Sc3ccc(OC)cc3)ncn2)cc1 |  | inconclusive [inhibitor, full curve, poor fit] |
| O=C(NNC(=O)C1CC(c2cccnc2)=NO1)Nc1ccccc1F (centres undefined) |  | inconclusive [inhibitor, single point] |
| CCCc1[nH]c2ccc(C(=O)OC)cc2c1CCC | inactive: -20.5% |  |
| COc1cccc(-c2nc3nc(C)cc(C)n3c2Nc2c(C)cccc2C)c1 | inactive: -2.57% |  |
| CCCOc1ccc(C(=O)N/N=C/c2c[nH]c3ccc(Br)cc23)cc1 |  | inconclusive [inhibitor, single point] |
| CCC(=O)N1CCc2cc(S(=O)(=O)NC(C(=O)Nc3cccc(C)n3)C(C)C)ccc21 (centres undefined) |  | inconclusive [inhibitor, single point] |
| COc1cc2ccccc2cc1C(=O)OCc1nc2ccsc2c(=O)[nH]1 |  | inconclusive [inhibitor, single point] |
| Cn1cc(CN2CCCC(C(=O)Nc3ccc(-c4cccc(F)c4)cc3)C2)cn1 (centres undefined) |  | inconclusive [inhibitor, partial curve] |
| CC(=O)N(/N=C1/C(=O)Nc2ccccc21)c1ccccc1 |  | inconclusive [inhibitor, single point] |
| CCCCCCCCOC(=O)/C=C/c1c(C)[nH]c(=O)[nH]c1=O |  | inconclusive [inhibitor, single point] |
| COc1cc(Cl)c(C)cc1NC(=O)Cn1c(NCCO)nc2ccccc21 |  | inconclusive [inhibitor, full curve, poor fit] |
| C=CC[C@H](CC(=O)NCCO)C(=O)N[C@H](COC(=O)[C@H](CC=C)CC(=O)OC(C)(C)C)c1ccccc1 | inactive: 4.67% |  |
| CC(C)C(NC(=O)c1c(F)cccc1F)C(=O)N1CCN(c2ccccc2F)CC1 (centres undefined) |  | inconclusive [inhibitor, single point] |
| COc1ccccc1C1(O)CCN(C(=O)c2cccs2)CC1 |  | inconclusive [inhibitor, full curve, poor fit] |
| C[C@H](NC(=O)c1nc[nH]c1C(=O)NC1CCN(C(=O)OC(C)(C)C)CC1)C(=O)OCc1ccccc1 |  | inconclusive [inhibitor, single point] |
